In all, about 81,000 sequences were measured (“one-hybrid fitness for binding parS DNA”: median about -0.17, highest 2% from about 0.51 on). Some of the results follow.
B1: Caulobacter ParB omega fusion; a variant is named by its letters at X, in order, B8GW30 (parent)
chain: MESVVVGEPGMSEGRRGLGRGLSALLGEVDAAPAQAPGEQLGGSREAPIEILQRNPDQPRRTFREEDLEDLSNSIREKGVLQPILVRPSPDTAGEYQIVAGERAWRAAQRAGLKTVPIMVRELDDLAVLEIGIIENVQRADLNVLEEALSYKVLMEKFERTQENIAQTIGKSXSHVANXMRLLXLPDEVQSYLVSGELTAXHARAIAAAADPVALAKQIIEGGLSVRETEALARKAPNLSAGKSKGGRPPRVKDTDTQALESDLSSVLGLDVSIDHRGSTGTLTITYATLEQLDDLCNRLTRGI

Variants of: B1
Experiment: one-hybrid fitness for binding parS DNA (scaled: cognate 1, non-cognate 0); higher = stronger binding
Settings: with parS DNA site
In short: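 Bacterial one-hybrid selection in E. coli USO rpoZ- hisB- pyrF- with a HIS3 reporter carrying the site 19 bp from the promoter, screening Caulobacter ParB libraries with four specificity codons randomised (NNS). Cells grew 48 hours at 37°C on M9-minus-histidine plus 0.1 mM IPTG and 5 mM 3-AT. Plasmids before and after selection were Illumina-sequenced, three replicate libraries pooled, and variants under 10 reads dropped. Fitness is the log change in variant-to-wild-type read ratio, rescaled to cognate 1, non-cognate 0.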

one-hybrid fitness for binding parS DNA, 0.442:
RTQN

one-hybrid fitness for binding parS DNA, 0.605:
RLLA

one-hybrid fitness for binding parS DNA, 1:
RATS

one-hybrid fitness for binding parS DNA, ≤ 0.2:
EGVD
KLVF
EMVM
QCHW
EDYT
CHPA
IREP
HFTW
NYHP
VDLR
YWWL
HCQF
ATVV
PINR
ERSD
ICSA
GSII
YWFR
PSTE
GLVE
GLAA
DLHC
NDRN
NVKR
IGKS
LHHL
VPHR
RNYL
DTRF
CYHF
EGML
SNLL
MAPS
WIGR
EPTY
GNRL
SWIG
INIE
KTYT
DQAS
LNFG
TEAR
KKTF
MHGG
PPKL
SRKN
TSLW
EWDK
MSQT
LILR
GTNP
VLHG
VCYG
TNVS
TGWR
ESDL
GDYY
PMYR
EFAV
VYLC
TNQW
HSYC
YVAV
LTAT
ITVF
TYNW
PEIC
LWIS
QHPY
RPYN
YMYF
TDES
VTPW
HTLG
GAQS
HHGC
RDNA
VQPL
TGLA
YIGR
KYTG
FKLS
PQQV
RVHV
WFVF
VLIT
TGKT
DLRT
TQEI
VEDF
VLSP
DVFT
LFPT
EQGR
RKVQ
LSTP
RGNP
RKWD
GLSP
VLYC
CNFR
QCRY
NQTT
DYWL
IYKS
CSTG
VSLV
NSIV
AQHT
TCQD
VRQR
QLPY
SYAG
YRHR
HQRR
FSNC
ASDC
KRRA
WAPA
EYYT
RDVL
IRPW
IRTW
HGPR
LPLV
STFQ
RFYP
DSLS
SDCT
RGVQ
NKPQ
WSTN
QPFC
NRGS
KSCS
KAYS
VDVY
GDYN
LKTI
CRSS
FSLG
RHPV
NDSC
TIQD
NNEG
NISG
CKWS

one-hybrid fitness for binding parS DNA, 0.926:
RYEC

one-hybrid fitness for binding parS DNA, 0.396:
RRAY

one-hybrid fitness for binding parS DNA, 0.9:
RFKS

Source: a collection of fitness landscapes (doi:10.1016/j.celrep.2020.107928)
